In PubChem BioAssay AID1259407 (Chemical Carcinogenesis Research Information System (CCRIS), 2018):
Some entries of the source have several records that differ or are many. This is not the full list of results. An entry can have further records. How the calls were made is not given here. Values given together are repeated measurements across runs, samples, wells, individuals or studies. What stands in brackets tells the records apart. Letters hold for one entry only.

Test system: CCRIS mutagenicity, Ames/micronucleus/aberration tests
Assay: CCRIS mutagenicity studies
Conditions: Test System: AMES SALMONELLA TYPHIMURIUM

O=C(O)C(Cl)Cl
mutagenic call (Strain/Indicator: TA98, Metabolic Activation: NONE, Method: PREINCUBATION): active; positive [study A] and inactive; negative [study B]

O=CC(Cl)(Cl)Cl
mutagenic call (Strain/Indicator: TA100, Metabolic Activation: NONE, Method: PREINCUBATION): active; positive [study A] and inactive; negative [study B]

Oc1c2c3c(ccc4ccc5cccc1c5c43)-c1ccccc1-2
mutagenic call (Strain/Indicator: TA100, Metabolic Activation: RAT, LIVER, S-9, AROCLOR 1254, Method: STANDARD PLATE): active; positive [sample A, 0 to 50 µg/plate] and inactive; negative [sample B, 0 to 50 µg/plate]

COC(=O)c1oc([N+](=O)[O-])c(Cl)c1Cl
mutagenic call (Strain/Indicator: TA100, Metabolic Activation: NONE, Method: STANDARD PLATE): active; positive [sample A, 0 to 3 µg/plate] and inactive; negative [sample B, 10 to 100 µg/plate]
